# Hit rate of the full screen: of about 310,000 compounds, about 14,000 (4.5%) showed an effect of 50% or more. Effects have a minus sign here. This is one part of the list.
# Target: human ether-à-go-go-related gene (hERG) potassium channel (human, UniProt Q12809)
# Experiment: primary screen, population patch clamp on CHO cells stably expressing hERG
# 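Further: peak tail current of the secondary pulse compared with the same well before compound.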
# human ether-à-go-go-related gene (hERG) potassium channel, sequence (Q12809 whole entry, looked up): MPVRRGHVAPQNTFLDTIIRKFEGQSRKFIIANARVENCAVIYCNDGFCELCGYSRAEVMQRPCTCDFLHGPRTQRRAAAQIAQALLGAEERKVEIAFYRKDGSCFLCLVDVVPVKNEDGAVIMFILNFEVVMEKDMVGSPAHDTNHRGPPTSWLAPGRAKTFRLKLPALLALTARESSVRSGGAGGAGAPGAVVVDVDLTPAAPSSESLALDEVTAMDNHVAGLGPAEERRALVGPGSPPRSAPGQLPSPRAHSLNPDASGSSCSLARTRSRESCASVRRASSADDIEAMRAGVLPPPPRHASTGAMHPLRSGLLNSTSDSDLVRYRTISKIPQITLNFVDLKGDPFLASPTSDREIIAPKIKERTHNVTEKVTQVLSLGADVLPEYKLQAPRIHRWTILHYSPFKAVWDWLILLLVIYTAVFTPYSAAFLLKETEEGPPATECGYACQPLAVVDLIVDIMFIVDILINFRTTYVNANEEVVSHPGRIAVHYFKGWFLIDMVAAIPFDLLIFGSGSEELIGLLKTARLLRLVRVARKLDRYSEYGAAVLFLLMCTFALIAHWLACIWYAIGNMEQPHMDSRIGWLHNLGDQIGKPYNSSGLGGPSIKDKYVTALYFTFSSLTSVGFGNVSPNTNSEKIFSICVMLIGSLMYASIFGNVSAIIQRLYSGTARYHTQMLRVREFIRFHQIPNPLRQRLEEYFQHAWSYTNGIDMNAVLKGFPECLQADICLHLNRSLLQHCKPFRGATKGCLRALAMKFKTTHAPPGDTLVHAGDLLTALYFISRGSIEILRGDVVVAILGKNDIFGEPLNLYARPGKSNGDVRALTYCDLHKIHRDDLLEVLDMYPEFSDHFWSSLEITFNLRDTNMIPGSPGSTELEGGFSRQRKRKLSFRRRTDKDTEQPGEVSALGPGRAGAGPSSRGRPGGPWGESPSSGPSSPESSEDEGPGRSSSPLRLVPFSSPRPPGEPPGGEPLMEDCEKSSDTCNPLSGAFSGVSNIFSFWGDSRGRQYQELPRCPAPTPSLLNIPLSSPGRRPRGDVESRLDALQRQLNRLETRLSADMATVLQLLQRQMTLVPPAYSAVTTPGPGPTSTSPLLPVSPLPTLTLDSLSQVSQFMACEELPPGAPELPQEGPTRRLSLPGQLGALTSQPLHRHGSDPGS
row,Structure (SMILES),"hERG current change (%, negative = inhibition) at 10uM [%]"
1,CC(C)C(C)NC(=O)COc1ccc([N+](=O)[O-])cc1Cl (stereo not shown),2.38
2,CCCc1nnc(NC(=O)CCC(=O)N2CCN(Cc3ccc(C)cc3C)CC2)s1,-43.7
3,COc1ccc(-c2cc3ccc(OCc4nn[nH]n4)cc3oc2=O)cc1,-6.46
4,CN(C)CCNc1ccc(Cl)cc1[N+](=O)[O-],-18.7
5,CCCN1C2CCCC1CC(NC(=O)NC13CC4CC(CC(C4)C1)C3)C2 (stereo not shown),-41.5
6,Cc1ccccc1NC(=O)C1C2CCCCC21 (stereo not shown),6.99
7,Cc1ccnc(NC(=O)C(C)n2cc([N+](=O)[O-])cn2)c1 (stereo not shown),-3.83
8,CC1CC(C)CN(S(=O)(=O)c2ccc3c(c2)oc(=O)n3CC(=O)N2CCOCC2)C1 (stereo not shown),4.92
9,CN1C(=O)[C@H]2[C@@H](C3CC3)N3C(=O)CN(CC4CC4)C(=O)[C@@]3(C)[C@H]2C1=O,16.9
10,COC(=O)C1=C(c2ccc(OC)c(OC)c2)C[C@@H]2CC[C@H]1N2C(=O)NCCO,15.5
11,O=C(COC(=O)c1ccccc1OCc1ccc(F)cc1)NCC1CCCO1 (stereo not shown),-15.6
12,CC(=O)Nc1ccc(S(=O)(=O)NC2(C(F)(F)F)NC(=O)N(Cc3ccccc3)C2=O)cc1 (stereo not shown),13.1
13,COc1cccc(CN(C)C(=O)c2ccc(NC(=O)CC3SC(N4CCCC4)=NC3=O)cc2)c1OC (stereo not shown),3.2
14,CCCCCOc1ccc(CSC2=NCCN2)cc1[N+](=O)[O-],-80.2
15,Cc1nn(Cc2ccc(Cl)cc2)c(C)c1NC(=O)C1CC=CCC1C(=O)O (stereo not shown),11.1
16,O=C(Cn1ncc2c(=O)oc3ccccc3c21)NCCCN1CCCC1=O,1.85
17,COc1cc(Cl)c(C)cc1NC(=O)COC(=O)/C=C/c1c(C)nn(C2CCS(=O)(=O)C2)c1Cl (stereo not shown),8.93
18,COC(CNC(=O)c1ccc2c(c1)ncn2-c1cccc(C)c1)OC,-2
19,Cc1ccc(NC(=O)Cc2ccccc2Cl)cc1S(=O)(=O)N(C)C,0.299
20,Cc1cc(C(=O)CN2CCCC2)c(C)n1-c1ccc(Cl)cc1,7.43
21,CN(c1cccc(NC(=O)CN(c2ccc(Cl)c(Cl)c2)S(=O)(=O)c2ccccc2)c1)S(C)(=O)=O,-2.36
22,O=C(Nc1ccccc1-c1ccccc1)c1ccccc1[N+](=O)[O-],12.2

row,Structure (SMILES),"hERG current change (%, negative = inhibition) at 10uM [%]"
1,N#CCC(=O)Nc1ccc(C(=O)OCC(=O)N2CCCC2=O)cc1,18.1
2,COc1ccc(-c2cc(CNS(=O)(=O)c3ccc(NC(C)=O)cc3)on2)cc1,18.6
3,COc1ccc(-c2oc3cccnc3c2C#CC2(O)CCCCC2)cc1,-1.19
4,CCc1nc2ccccc2n1CC(O)COc1ccc(NC(C)=O)cc1 (stereo not shown),12.1
5,Cc1onc(-c2ccccc2Cl)c1C(=O)N1CCN(C/C=C/c2ccccc2)CC1,-46.6
6,Cc1ccc(S(=O)(=O)N2CCC(C(=O)Nc3ccccc3N3CCCC3)CC2)c(C)c1,13.2
7,COC(=O)c1sccc1NC(=O)C12CC3CC(CC(C3)C1)C2,23.3
8,CCCCc1nc2ccccc2n1Cc1nnc2n1-c1ccccc1SC2,-63
9,O=C(CC1SC(N2CCCCC2)=NC1=O)Nc1cccc(C(F)(F)F)c1 (stereo not shown),12.3
10,O=C(COc1ccccc1[N+](=O)[O-])N1CCC(Cc2ccccc2)CC1,-16.1
11,Cc1cc(C(=O)N/N=C/C=C/c2ccc(Br)cc2)n[nH]1,9.77
12,Cc1ccccc1C(=O)NC1CC2CCCC(C1)N2Cc1ccccc1 (stereo not shown),-25
13,CCCCn1c(N)c(N(CC(C)C)C(=O)c2cc(-c3ccc(OC)c(OC)c3)nc3ccccc23)c(=O)[nH]c1=O,1.67
14,CNC(=S)c1cc(C(C)(C)C)c(O)c(C(C)(C)C)c1,18.6
15,CC(C)NC(=S)N/N=C1\CCCc2ccccc21,10.4
16,COc1ccc(CNC(=O)C2CCC(CNc3c(N4CCC(C)CC4)c(=O)c3=O)CC2)cc1 (stereo not shown),2.45
17,COc1ccc(NC(=O)CSc2nc(O)cc(=O)[nH]2)c(OC)c1,13.6
18,Cc1nc(=O)c(-c2ccccc2)c(C)n1-c1ccccc1C(=O)O,21.9
19,O=C(CNC(=O)c1cccc(F)c1)OCC(=O)N1CCN(C(=O)c2ccco2)CC1,22.8
20,Cc1ccc(C(=O)CCC(=O)OCC(=O)N(CC(C)C)c2c(N)n(Cc3ccccc3)c(=O)[nH]c2=O)cc1,-33.2
21,CS(=O)(=O)Nc1cccc(C2=NN(S(C)(=O)=O)C(c3ccc4c(c3)OCO4)C2)c1 (stereo not shown),-62.3
